Out of some 48,000 compounds screened, about 450 (0.94%) were called active. Inconclusive results (about 19%) are left out. The call rests on the fitted dose curve; in most records, active means well fitted inhibition curve with a large enough effect; inconclusive means small, poorly fitted or top-dose-only effect; inactive means no such curve, though single readings can be large or run the other way. The list shows a part of the results.

The assay in a line: Primary qHTS for Identification of Small Molecule Inhibitors of Huntingtin Promoter Activity. Further: nearly all actives have a fitted effect of over 50% in size. The following applies: HEK293 HTT promoter firefly luciferase reporter (activity 0% = vehicle and -100% = no light), 24 h; series mostly up to 57.5 µM; activity change, negative = inhibition: at the top concentration. In outline: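 HEK293 luciferase promoter-reporter cells (2,500/well) plated 24 h, then compounds added at up to 57.5 uM final for 24 h at 37 °C. Firefly luminescence by Dual-Glo, normalized to vehicle (0%) and zero RLU (-100%).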
(qHTS replaces the single test concentration by a dilution series.)
On to `COc1ccc(N2CC(NC(=O)c3ccc(S(=O)(=O)N4CCCC4)cc3)CC2=O)cc1` (stereo unspecified), for which the “activity change, negative = inhibition” value is inactive: -14.6%.

For `COc1ccc(-n2nc(C(=O)N3CCN(c4ccccc4OC)CC3)c3c4ccccc4n(C)c3c2=O)cc1`, the “activity change, negative = inhibition” value is inactive: -9.2%.

As for `CCOC(=O)c1ccc(NC(=O)C(CC)Sc2nc3ncccc3[nH]2)cc1` (stereo unspecified), the “activity change, negative = inhibition” value was inactive: -18%.

Consider `COc1cccc(N2CC(NC(=O)/C=C\c3ccc4c(c3)OCO4)CC2=O)c1` (stereo unspecified), for which the “activity change, negative = inhibition” value is inactive: -25.1%.

Regarding `CCc1ccccc1NC(=O)CN1C(=O)CCc2cc(S(=O)(=O)N3CCCCC3)ccc21`, the “activity change, negative = inhibition” value was inactive: -24.4%.

In the case of `Cc1ccc(CNC(=O)c2ccc(CSCc3ccc(Cl)cc3)o2)cc1`, the “activity change, negative = inhibition” value is inactive: -21%.

As for `Nc1ncnc2c1ncn2[C@@H]1O[C@H](CO)[C@@H](O)[C@@H]1O`, the “activity change, negative = inhibition” value is inactive: 0.234%.

In the case of `CCOc1ccccc1C(=O)Nc1c(NC)c2ccccc2oc1=O`, the “activity change, negative = inhibition” value is inactive: -5.66%.

As to `O=C(NCc1cccc(F)c1)C1=Cc2cc(Br)ccc2OC1`, the “activity change, negative = inhibition” value was inactive: -16.1%.

Take `O=C(Nc1cc(C(F)(F)F)ccc1Cl)c1cc2nc(-c3ccc4c(c3)OCO4)cc(C(F)(F)F)n2n1`: the activity change, negative = inhibition was inactive: 0.597% [at 11.5 µM].

Consider `Cn1c(=O)oc2cc(S(=O)(=O)N3CCCC(C(=O)Nc4ccc(Br)cc4F)C3)ccc21` (stereo unspecified), for which the “activity change, negative = inhibition” value was inactive: -17.1%.

On to `COc1ccc(N(CC(=O)NCc2ccc(F)cc2)S(=O)(=O)c2c(C)n[nH]c2C)cc1`, for which the “activity change, negative = inhibition” value was inactive: -4.83%.

Turning to `COc1ccc(OCCCn2c(=O)oc3ccc(C)cc32)cc1`, the “activity change, negative = inhibition” value is inactive: -15.2%.

Turning to `O=C(CSc1nc2c(oc3ccccc32)c(=O)n1Cc1ccco1)Nc1cccc(Cl)c1`, the “activity change, negative = inhibition” value is inactive: -7%.

On to `Cc1cn(C)c(CC(=O)Nc2cccc(Cl)c2C)c1C(=O)O`, for which the “activity change, negative = inhibition” value is inactive: -6.29%.

On to `Cc1cc(C)cc(NC(=O)CN2C(=O)c3ccccc3Sc3ccc(C(=O)N4CCOCC4)cc32)c1`, for which the “activity change, negative = inhibition” value was inactive: -19.9%.

As to `COc1cc2c(cc1NS(=O)(=O)c1cccc(C#N)c1)n(C)c(=O)n2C`, the “activity change, negative = inhibition” value is inactive: -13.4%.

As to `Cc1ccc(C)c(Cn2nnc(C(=O)NCc3ccc(Cl)cc3Cl)c2N)c1`, the “activity change, negative = inhibition” value is inactive: -7.16%.

On to `C=CCc1cccc2cc(C(=O)Nc3cccc(Cl)c3)c(=O)oc12`, for which the “activity change, negative = inhibition” value was inactive: 17.9%.

For `Cc1cccc(C(=O)NCCc2sc(-c3ccccc3)nc2C)c1`, the “activity change, negative = inhibition” value was inactive: -19.2%.

On to `CCOC(=O)c1sc2ccccc2c1S(=O)(=O)Nc1cccc(C(F)(F)F)c1`, for which the “activity change, negative = inhibition” value is inactive: 0%.

With `Cc1coc2c1c(C)cc1oc(=O)cc(C)c12`, the “activity change, negative = inhibition” value is inactive: -0.475%.

On to `Cc1oc(-c2cccc(Cl)c2)nc1CN1CCCC(C(=O)NCc2ccc(F)cc2)C1` (stereo unspecified), for which the “activity change, negative = inhibition” value is inactive: 0.958%.

On to `COc1ccc(-c2nnc(SCC(=O)Oc3c(C)cccc3C)o2)cc1OC`, for which the “activity change, negative = inhibition” value is inactive: 2.15%.

Regarding `CCCCN(C)C(=O)C(Cc1ccccc1)NS(=O)(=O)c1ccc2c(c1)c(=O)n(C)c(=O)n2C` (stereo unspecified), the “activity change, negative = inhibition” value is inactive: -6.76%.

`COC(=O)c1cc(NC(=O)Cn2nc(C)n3cccc3c2=O)cc(C(=O)OC)c1`: the “activity change, negative = inhibition” value is inactive: 11.6%.

Consider `Cc1ccc(-c2c(C(=O)NCc3ccccc3)oc(=O)c3ccccc23)cc1`, for which the “activity change, negative = inhibition” value is inactive: -12.1%.

Consider `CCOC(=O)C1=C(CS(=O)(=O)c2ccc(Br)cc2)NC(=O)NC1c1ccccc1` (stereo unspecified), for which the “activity change, negative = inhibition” value was inactive: -19.2%.

Take `CCc1cccc(C)c1NC(=O)c1cc(C)nc2c1c(C)nn2-c1cccc(Cl)c1C`: the “activity change, negative = inhibition” value was inactive: -8.71%.

As to `Cc1cc(OC(=O)c2cc(-c3ccc4c(c3)OCCO4)on2)ccc1Cl`, the “activity change, negative = inhibition” value was inactive: -1.22%.

Take `COc1ccc2c(c1)-c1nc(NC(=O)c3cc(Cl)ccc3OC)sc1CC2`: the “activity change, negative = inhibition” value is inactive: -4.7%.

Consider `COc1ccccc1CNC(=O)CCn1c(=O)c2ccccc2n(CC(=O)Nc2ccc(C)cc2C)c1=O`, for which the “activity change, negative = inhibition” value is inactive: -4.74%.

For `CN1c2ccccc2-c2nc(SCC(=O)Nc3ccccc3C(F)(F)F)ncc2S1(=O)=O`, the “activity change, negative = inhibition” value was inactive: -33.8%.

On to `Cc1ccc(CSc2nc3ccc(NC(=O)C(C)C)cc3s2)cc1`, for which the “activity change, negative = inhibition” value was inactive: -15.3%.

For the compound `CCN(Cc1ccccc1)C(=O)Cn1c(=O)n(Cc2ccccc2)c(=O)c2c1c1cc(OC)ccc1n2C`, the “activity change, negative = inhibition” value is inactive: -2.75%.

For the compound `COc1ccc(C(CC(=O)Nc2ccc(C)c(C)c2)N2Cc3ccccc3C2=O)cc1OC` (stereo unspecified), the “activity change, negative = inhibition” value was inactive: -22.7%.

Turning to `CC(C)c1ccc(S(=O)(=O)c2nnn3c2nc(NC2CCCC2)c2sccc23)cc1`, the “activity change, negative = inhibition” value is inactive: -8%.

Turning to `Cc1ccc2c(=O)cc(CSc3ccccc3)[nH]c2c1C`, the “activity change, negative = inhibition” value was inactive: 17.7%.

Turning to `Cc1nc(CC(=O)Nc2cccc(C)c2C)cs1`, the “activity change, negative = inhibition” value is inactive: -2.83%.

As for `COc1ccc(C(=O)NCc2ccc3c(c2)CCN3C(=O)c2ccncc2)cc1`, the “activity change, negative = inhibition” value is inactive: -28.1%.

For the compound `CCCCCCNC(=O)c1c[nH]c2ccc(S(=O)(=O)N(C)c3ccc(C(C)C)cc3)cc2c1=O`, the “activity change, negative = inhibition” value was inactive: -0.856%.

As for `N#C/C(=C/c1ccccc1Cl)c1nc2ccccc2c(=O)[nH]1`, the “activity change, negative = inhibition” value is inactive: -2.33%.

In the case of `Cc1ccc(Cl)cc1N(C)C(=O)c1cc2c(Cl)nc3ccccc3c2s1`, the “activity change, negative = inhibition” value is inactive: 3.43%.

`O=C(C1CCC(Cn2c(=O)c3sccc3n(Cc3cccc(F)c3)c2=O)CC1)N1CCOCC1` (stereo unspecified): the “activity change, negative = inhibition” value was inactive: -17.5%.

As to `Cc1cc2nn(-c3ccc(F)cc3)nc2cc1NC(=O)c1cccc([N+](=O)[O-])c1C`, the “activity change, negative = inhibition” value was inactive: 30.3%.

With `COc1cccc(OC(=O)CSc2nnc(-c3cccs3)o2)c1`, the “activity change, negative = inhibition” value was inactive: 1.65%.

With `CC(=O)Nc1ccc(Nc2nc3c(S(=O)(=O)c4cc(C)ccc4C)nnn3c3ccsc23)cc1`, the “activity change, negative = inhibition” value was inactive: -2.63%.

As to `Cc1[nH]cnc1CN1CCc2c(c3ccccc3n2C)C1=O`, the “activity change, negative = inhibition” value is inactive: -4.6%.

As for `CC1(C)OC[C@@H](COC(=O)CCc2ccc(OC[C@@H](O)CNCCNC(=O)N3CCOCC3)cc2)O1`, the “activity change, negative = inhibition” value is inactive: 9.79%.

Turning to `COc1ccccc1NC(=O)CSc1ccc(-c2ccccn2)nn1`, the “activity change, negative = inhibition” value was inactive: -10.9%.

As to `CCn1ccc2cc(S(=O)(=O)N3CCCN(C(=O)Nc4cccc(SC)c4)CC3)ccc21`, the “activity change, negative = inhibition” value was inactive: -28.9%.

Consider `CCCNC(=O)C1CCN(C(=O)N2CC(C)Oc3ccccc32)CC1` (stereo unspecified), for which the “activity change, negative = inhibition” value is inactive: 3.08%.

`Cc1ccc(CNC(=O)C2CCC(CNS(=O)(=O)c3ccc(C)cc3)CC2)cc1` (stereo unspecified): the “activity change, negative = inhibition” value was inactive: -5.94%.

As for `CCCCN(C)S(=O)(=O)c1ccc(NC2=NS(=O)(=O)c3ccccc32)cc1`, the “activity change, negative = inhibition” value was inactive: -21.5%.

Regarding `Cc1ccc(-n2nc3c(N4CCC(C(=O)NC5CCCCC5)CC4)nnc(C)c3c2C)cc1`, the “activity change, negative = inhibition” value is inactive: -16%.

On to `Cc1cc2oc(C(=O)Nc3ccc(S(=O)(=O)N4CCC(C)CC4)cc3)cc(=O)c2cc1C`, for which the “activity change, negative = inhibition” value was inactive: -6.24%.

Take `COc1ccc(-n2ncc(C(=O)N3CCN(C(=O)c4ccco4)CC3)c2C2CCN(C(=O)OC(C)(C)C)CC2)cc1`: the “activity change, negative = inhibition” value is inactive: 17.1%.

Regarding `COc1ccc(-c2ccc(CNCCCSc3nnnn3C)o2)cc1Cl`, the “activity change, negative = inhibition” value was inactive: -15.8%.

As for `COc1ccc(NC(=O)c2c(NCc3ccc(OC)c(OC)c3OC)sc3c2CCC3)c(OC)c1`, the “activity change, negative = inhibition” value is inactive: -16%.

`Cc1ccc(N(C)S(=O)(=O)c2ccc(-c3coc(C)n3)cc2)cc1`: the “activity change, negative = inhibition” value is inactive: -12.5%.

Take `Cc1cccc(-c2noc(-c3ccc(NCc4ccccc4)c([N+](=O)[O-])c3)n2)c1`: the “activity change, negative = inhibition” value is inactive: 13%.

(Values after PubChem BioAssay AID1508623 (National Center for Advancing Translational Sciences (NCATS), 2021).)
